From paper PMC12136788
The list shows a part of the results.

T1: UNK ZnF1-6 (called full-length) (human, UniProt Q9C0B0 30-357)
T1 sequence: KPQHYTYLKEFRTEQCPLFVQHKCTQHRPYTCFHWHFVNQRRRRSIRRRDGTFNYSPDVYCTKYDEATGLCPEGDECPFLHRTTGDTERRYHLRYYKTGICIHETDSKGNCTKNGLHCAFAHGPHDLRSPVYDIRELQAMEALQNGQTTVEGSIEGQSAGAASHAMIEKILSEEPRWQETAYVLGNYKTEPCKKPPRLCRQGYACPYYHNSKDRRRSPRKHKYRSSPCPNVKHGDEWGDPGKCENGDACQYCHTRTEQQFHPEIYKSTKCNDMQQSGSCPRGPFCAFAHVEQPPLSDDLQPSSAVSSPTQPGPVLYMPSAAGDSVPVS

B1: chr1:51356092:51356193:-|3pUTR|ENSG00000085832|unk|FALSE|unique (ssRNA)
RNA: GGGAGUUCUACAGUCCGACGAUCUUCAGAGAUAAGGAAAAAUAUUUUGCACAGAUUUACUCCACUAUGGAAAAGGGAUGCUGUAGGUUGAACCAUUAUAGCCUCAGAUUCGAUCUUUUCCUAACUAAAAAUAUUAAAGCCUCACAACAGAGGAUUGAGCAUCA
B2: chr21:43756582:43756683:+|3pUTR|ENSG00000160209|msi1|total|mutant (ssRNA)
RNA: GGGAGUUCUACAGUCCGACGAUCGCAUUCGAACUUUUGGUUCUUACUUUGCUGCUCGUUCCGUCCCUGGGGAUUUCAGAUCUCCGGCUGUUGUUUCACCGUAUGGGAGGGUUGAUGUGAGCUUGCUUGGAGACACACGGUGCACAACAGAGGAUUGAGCAUCA
B3: ENSG00000107863:be:win_1401|CDS|ENSG00000107863|bound_else_gene|NA|bound_elsewhere_windowed (ssRNA)
RNA: GGGAGUUCUACAGUCCGACGAUCGCUAAUGAAGUAUUGUCCAAGAAGUGCAUCUCAAGGAGCACUGACGUCUCCAUCUGUUAGUUUUAGUAAUCAUAGAACUCGUUCAUGGGAUUAUAUUGAGGGACAGGAUGAAACCUUAGACAACAGAGGAUUGAGCAUCA
B4: chr1:33300114:33300153:+|3pUTR|ENSG00000160094|msi1_unk|FALSE|overlapping (ssRNA)
RNA: GGGAGUUCUACAGUCCGACGAUCCCCUGCCCCCAGCCCCCACAGACACACCCCAAUCUGAAAGCCAUGCGUGUCGGUGUAUAUAGGAACCAUGUACAGAGCCCAGAGAAGCCCCCUACAUCCCCCCGGGAAAAAAAAGAAAACCAACAGAGGAUUGAGCAUCA
B5: ENSG00000071054:stop:overlap|stop_codon|ENSG00000071054|stop_codon|NA|stop_codon (ssRNA)
RNA: GGGAGUUCUACAGUCCGACGAUCCUGGUGGCAGCAGUCAGGUUUAUUUCAUGACCUUAGGCAGGACUUCUCUUCUGAGCUGGUAGAAGCAGUGUGAUCCAGGGAUUACUGGCCUCCAGAGUCUUCAAGAUCCUGAGAACUUGGCAACAGAGGAUUGAGCAUCA
B6: ENSG00000174780:stop:overlap|stop_codon|ENSG00000174780|stop_codon|NA|stop_codon (ssRNA)
RNA: GGGAGUUCUACAGUCCGACGAUCAAGCUGAAGGUUGGAAGUUUGUUAAACUUAUCUGUAAAUAUAACGUGCAUAUAACUUUGUAGAGUAUCUUCUAAAAUUGCAUUUGACUUCUGUGAAAUUAUUAAAUGGAAGUUAUUGAUGCAACAGAGGAUUGAGCAUCA
B7: chr7:73478266:73478367:-|CDS|ENSG00000009954|unk|total|mutant (ssRNA)
RNA: GGGAGUUCUACAGUCCGACGAUCGAGUGGCUCGCCACUCAAAGUGAAGAACUCAAAGAAUUCCAAAUCUCCUGAAGAACAUCCCGAAGAAAUGAUGAAGAUGAUGUCGCCCAAUAAGCUGCACACUAACUUUCACAUUCCUAACAACAGAGGAUUGAGCAUCA
B8: chr2:42682433:42682535:+|CDS|ENSG00000057935|unk|FALSE|unique (ssRNA)
RNA: GGGAGUUCUACAGUCCGACGAUCUCACGCUAUGGAUACAUUGUAUAGACACAGCUAUGAUUUGAGCAGUGCCAUUAGUGUCUUAGUACCACUCGGAGGACCUGUUUUAUGCAGAGAUGAAAUGGAGGAAUGGUCAGCCUCUGACAACAGAGGAUUGAGCAUCA
B9: chr6:122456482:122456612:-|CDS|ENSG00000111897|unk|FALSE|unique (ssRNA)
RNA: GGGAGUUCUACAGUCCGACGAUCUGCUUUGGUUUGGCUAUGUUCUAUCUUCUUCUCUCUUUACUAAUGAUCAAAGUGAAGAGUAGCAGUGAUCCUAGAGCUGCAGUGCACAAUGGGUAAGUUUUUAAAUAAGCUUCAAUAUAACAACAGAGGAUUGAGCAUCA
B10: ENSG00000187498:stop:overlap|stop_codon|ENSG00000187498|stop_codon|NA|stop_codon (ssRNA)
RNA: GGGAGUUCUACAGUCCGACGAUCAGGUGAACCGGGACCUCCUGGAUUGCCAGGCUCCGUGGGGUCUCCAGGAGUUCCAGGAAUAGGCCCCCCUGGAGCUAGGGGUCCCCCUGGAGGACAGGGACCACCGGGGUUGUCAGGCCCCAACAGAGGAUUGAGCAUCA
B11: chr5:96979339:96979440:+|CDS|ENSG00000113441|unk|total|mutant (ssRNA)
RNA: GGGAGUUCUACAGUCCGACGAUCGAGGAGGAUGAAGAGGAUUAUGAGUCAUCAGCAAAGCUGCUGGGCAUGUCCUUCAUGAACCGAAGCUCAGGCCUUCGGAACAGUGCAACUGGUUACAGGCAGAGCCCAGAUGGGGCUUGUCAACAGAGGAUUGAGCAUCA
B12: chr17:78107396:78113211:-|three_prime_utr|ENSG00000141524|control|control|control (ssRNA)
RNA: GGGAGUUCUACAGUCCGACGAUCUUGGGACAACCGAGGAGGCUGCGGCACCCCCUGCCCUGCUCACAGAUGAACAGGAUGCCUAGGGGGACGGCGAUGGGCCUCACGGGCCCGCCCAGCACCCUGAGACCACACUGUUGCCUCCAACAGAGGAUUGAGCAUCA
B13: ENSG00000160209:stop:overlap|stop_codon|ENSG00000160209|stop_codon|NA|stop_codon (ssRNA)
RNA: GGGAGUUCUACAGUCCGACGAUCCCUUGACCUCCUGGGCUGAAGCAAUCUUUCUGCCUCCACCUCCCGAGUGGCUGGGACUAUAGUUGUGCACCAGCACGCCCACCUCCUGCCCAGGGUUGUUACUGGGGUGGUCACGUGGGCCAACAGAGGAUUGAGCAUCA
B14: chr5:173316221:173316322:-|3pUTR|ENSG00000113739|msi1|FALSE|unique (ssRNA)
RNA: GGGAGUUCUACAGUCCGACGAUCAGUACUUUCAGUUUGGCGAGCCGUGAGGUCUCUGUCGAAACUACUCAACUCUGCCGUCCUAGCACAAAAGCAGCCAUAGACAACACACAAACGAGAGGGCUUGGCUCCCUUCCAGGAAGACAACAGAGGAUUGAGCAUCA

Biological target: T1, UNK ZnF1-6 (called full-length)
Test: nsRBNS (natural sequence RNA bind-n-seq); RBNS binding buffer (assumed for nsRBNS): 25 mM Tris pH 7.5, 150 mM KCl, 3 mM MgCl2, 0.01% Triton X-100, 500 ug/ml BSA, 20 U/ml SUPERase-In, 4 C; UNK is unkempt and MSI1 is Musashi-1; names of the RNAs are library labels; protein concentration not given here; high values mean tight binding

| Binder | binding signal [enrichment R] |
| --- | --- |
| B1 | 0.488 |
| B2 | 0.696 |
| B3 | 1.22 |
| B4 | 0.882 |
| B5 | 0.623 |
| B6 | 0.733 |
| B7 | 0.273 |
| B8 | 0.747 |
| B9 | 0.536 |
| B10 | 0.745 |
| B11 | 0.656 |
| B12 | 0.752 |
| B13 | 0.427 |
| B14 | 1.21 |
